Assay results taken from the supplement of paper PMC3334620.
Over roughly 33,000 sequences, “E-score (-0.5 to 0.5)” has its median near -0.036; the highest 2% begin near 0.37. The list shows a part of the results.

molecular target: T1, Yer064c (UniProt P40041); assay: PBM E-score (8-mer binding enrichment) (E-score (-0.5 to 0.5)); higher = stronger / more preferred TF binding; most listed sequences are background and not binding sites; conditions: protein concentration: 200 nM; construct: GST-full length
T1 sequence: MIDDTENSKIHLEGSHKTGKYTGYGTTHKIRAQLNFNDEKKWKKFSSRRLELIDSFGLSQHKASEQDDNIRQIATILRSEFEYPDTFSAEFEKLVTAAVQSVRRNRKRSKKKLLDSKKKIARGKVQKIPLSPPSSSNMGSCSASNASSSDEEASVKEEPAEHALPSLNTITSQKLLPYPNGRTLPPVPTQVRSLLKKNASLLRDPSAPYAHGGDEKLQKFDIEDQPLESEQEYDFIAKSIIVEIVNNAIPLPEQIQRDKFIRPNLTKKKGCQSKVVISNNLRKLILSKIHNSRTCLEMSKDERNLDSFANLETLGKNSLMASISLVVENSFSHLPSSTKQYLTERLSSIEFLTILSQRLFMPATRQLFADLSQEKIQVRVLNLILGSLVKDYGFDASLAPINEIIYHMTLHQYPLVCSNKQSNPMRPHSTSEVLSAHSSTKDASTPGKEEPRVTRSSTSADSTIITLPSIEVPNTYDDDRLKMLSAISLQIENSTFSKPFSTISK
How it was run: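 GST-tagged yeast TFs (full-length or DNA-binding domain) were made by PURExpress in vitro transcription/translation and applied at about 100-200 nM to universal all-10-mer Agilent arrays. The arrays were made double-stranded by primer extension, on fresh or once-stripped slides. Bound protein was detected with fluorescent anti-GST, and scans were normalised with masliner. Each ungapped eight-base word, pooled with its reverse complement, received an E-score (modified Wilcoxon-Mann-Whitney statistic) from the Universal PBM Analysis Suite.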

Sequence | PBM E-score
ACGCCCAT | -0.147
CGGTTTAA | -0.0168
CGTTAGGA | 0.0277
GCAGAAAA | 0.00962
CCATGAGG | -0.305
ACCCATGG | 0.113
CGATATTA | 0.126
ATTACTGC | 0.101
AGCTCCCA | -0.167
GTAGAGAA | -0.00676
CCAGAATA | -0.117
AAAAACTC | 0.101
AACATCTA | -0.0661
CCAACTAA | 0.0435
ACCGTGCA | -0.0752
CACGGTCC | -0.289
CCACTTCA | -0.1
ACCCTTCC | 0.0155
CAGATTCA | 0.157
GTGGTAAA | -0.067
GATTCTGC | 0.187
ACTTCGGC | 0.0486

Sequence | PBM E-score
ATCAAACG | 0.0507
GCGATCGA | -0.251
GCTAATTA | 0.0849
ATCCCGAT | 0.0298
ATTGAAAA | 0.126
GAGTTTGC | -0.00893
CTAAGCTC | 0.0364
ACGGCCCT | -0.385
ATGGTGCG | -0.172
CACTTAAG | 0.149
GCCCATGA | -0.0169
GCACGCCC | -0.212
AATCATGT | 0.453
GGTCCTCA | -0.0925
ACATAACA | 0.0324
AGGTGACA | -0.0676
AATGGCAG | -0.187
AGTCACCA | 0.469
ATATTTGA | 0.22
ATGCCTTA | -0.124
CCCGTCTA | -0.089
CATTACCG | 0.00021

Sequence | PBM E-score
CGATTAAC | 0.265
GAGGGGAC | 0.00191
ACACATCA | 0.152
ACAGACCG | -0.261
ACTGTCTC | 0.0116
TCTGGACA | -0.266
ATTGTGCG | 0.038
ACAGAGCG | -0.05
ACTTAAGT | 0.176
AGCTTCGA | -0.125
AGGATTCG | -0.0455
CATGAGTA | 0.341
AATGGGCC | -0.281
ATCACAGC | 0.102
CCCATCAC | -0.0593
CGAGAAGC | -0.169
CTGTCATA | 0.0424
ACCGGTCG | -0.0496
CCCTGATC | -0.0628
ACAGAACA | -0.00928
ACTCCGCA | 0.108
CCTGCTAC | -0.184

Sequence | PBM E-score
TAGGCGCA | -0.147
CCATGGCA | -0.151
CACAATCG | 0.0405
GCGGAGTA | -0.0756
ACCCGGGA | 0.0149
CCGCTAAC | -0.181
GAAACAGC | -0.155
AGGTTACT | -0.0277
CAGCGGAA | -0.156
CAATATCA | -0.101
GTCAGAAC | 0.188
GACGATTA | 0.235
CCGACCCG | -0.0852
GGAGTTAC | -0.0565
AATCACAC | 0.39
GAAGACGC | -0.193
CACCCCGG | -0.158
GCTAAATA | 0.0617
CTATCTTA | 0.0476
CAAATGTA | 0.0294
